Common to all, as to experiment: two-hybrid; matrix-based yeast two-hybrid, GAL4-AD and GAL4-BD fusions (pDEST22, pDEST32), in duplicate, at least two reporter genes; medium lacking Leu, Trp and His with 1 mM 3-amino-1,2,4-triazole, growth scored after 4 days at 20°C
For experiment [1], the target named is AGAMOUS (Arabidopsis thaliana) (UniProt P17839).
Experiment [2] has as its target AGAMOUS-LIKE24 (Arabidopsis thaliana) (UniProt O82794).
Experiment [3] has as its target T1, AGL15 (Arabidopsis thaliana) (UniProt Q38847).
T1 sequence: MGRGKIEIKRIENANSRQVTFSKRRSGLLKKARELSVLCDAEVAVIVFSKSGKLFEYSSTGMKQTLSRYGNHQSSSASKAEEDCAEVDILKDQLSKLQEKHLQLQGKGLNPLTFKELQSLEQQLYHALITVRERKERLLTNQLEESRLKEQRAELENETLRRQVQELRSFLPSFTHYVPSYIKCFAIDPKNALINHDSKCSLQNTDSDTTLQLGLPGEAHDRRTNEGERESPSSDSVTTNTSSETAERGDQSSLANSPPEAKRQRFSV

Amino acid sequences for entries named in this document (tags omitted). A change or cut given only in a name is not applied to a line headed by its entry.
UniProt P17839: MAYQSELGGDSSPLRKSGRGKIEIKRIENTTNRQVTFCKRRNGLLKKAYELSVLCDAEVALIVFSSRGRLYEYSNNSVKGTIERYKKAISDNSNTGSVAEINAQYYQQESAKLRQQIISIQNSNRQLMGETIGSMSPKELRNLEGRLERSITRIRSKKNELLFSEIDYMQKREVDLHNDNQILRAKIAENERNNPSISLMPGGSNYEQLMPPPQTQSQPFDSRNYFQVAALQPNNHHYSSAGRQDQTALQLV
UniProt O82794: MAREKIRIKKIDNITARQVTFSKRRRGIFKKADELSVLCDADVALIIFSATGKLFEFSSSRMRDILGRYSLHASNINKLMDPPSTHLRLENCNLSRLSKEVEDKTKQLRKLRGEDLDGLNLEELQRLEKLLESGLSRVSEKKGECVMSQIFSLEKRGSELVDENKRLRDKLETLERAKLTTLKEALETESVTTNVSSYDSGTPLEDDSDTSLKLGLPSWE
UniProt O82743: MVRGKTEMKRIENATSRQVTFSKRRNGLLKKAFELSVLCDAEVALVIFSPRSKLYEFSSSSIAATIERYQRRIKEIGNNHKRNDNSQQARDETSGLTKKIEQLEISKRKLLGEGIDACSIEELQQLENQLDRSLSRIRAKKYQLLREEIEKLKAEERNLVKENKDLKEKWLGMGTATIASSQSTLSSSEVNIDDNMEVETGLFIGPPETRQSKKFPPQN
UniProt Q9SZJ6: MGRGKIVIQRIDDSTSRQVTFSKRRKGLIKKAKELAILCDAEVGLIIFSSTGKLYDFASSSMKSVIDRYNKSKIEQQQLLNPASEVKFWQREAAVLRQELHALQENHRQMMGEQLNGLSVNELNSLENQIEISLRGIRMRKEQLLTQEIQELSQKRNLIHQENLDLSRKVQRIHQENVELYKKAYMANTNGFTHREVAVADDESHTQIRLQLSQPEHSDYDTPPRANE
UniProt P29386: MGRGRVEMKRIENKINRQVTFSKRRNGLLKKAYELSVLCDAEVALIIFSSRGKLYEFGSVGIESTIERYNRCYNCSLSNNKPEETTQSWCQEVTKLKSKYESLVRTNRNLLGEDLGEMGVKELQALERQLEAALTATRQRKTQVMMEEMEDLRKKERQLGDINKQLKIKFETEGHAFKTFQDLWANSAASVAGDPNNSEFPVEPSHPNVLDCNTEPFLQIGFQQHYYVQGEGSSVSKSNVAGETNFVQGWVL
UniProt Q39081: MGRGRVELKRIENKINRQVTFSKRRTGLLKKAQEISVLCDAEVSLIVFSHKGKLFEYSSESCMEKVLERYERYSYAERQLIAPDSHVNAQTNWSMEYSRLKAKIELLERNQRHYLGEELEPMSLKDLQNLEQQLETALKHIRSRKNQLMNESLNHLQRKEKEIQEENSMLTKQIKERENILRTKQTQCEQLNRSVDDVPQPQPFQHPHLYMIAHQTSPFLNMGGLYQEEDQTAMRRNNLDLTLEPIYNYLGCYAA
UniProt Q9S7Q7: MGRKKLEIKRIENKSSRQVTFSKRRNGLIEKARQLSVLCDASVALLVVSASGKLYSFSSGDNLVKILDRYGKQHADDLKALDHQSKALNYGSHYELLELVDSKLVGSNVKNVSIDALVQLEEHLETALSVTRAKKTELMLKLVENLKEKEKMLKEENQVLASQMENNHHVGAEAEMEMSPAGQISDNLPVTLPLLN
UniProt P29382: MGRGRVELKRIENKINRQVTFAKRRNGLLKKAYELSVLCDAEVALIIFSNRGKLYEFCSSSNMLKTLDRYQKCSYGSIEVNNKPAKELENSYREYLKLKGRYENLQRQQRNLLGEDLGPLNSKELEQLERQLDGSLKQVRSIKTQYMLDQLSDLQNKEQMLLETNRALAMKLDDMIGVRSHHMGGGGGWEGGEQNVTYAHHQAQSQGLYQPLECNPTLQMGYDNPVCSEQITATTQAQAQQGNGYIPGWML
UniProt O22456: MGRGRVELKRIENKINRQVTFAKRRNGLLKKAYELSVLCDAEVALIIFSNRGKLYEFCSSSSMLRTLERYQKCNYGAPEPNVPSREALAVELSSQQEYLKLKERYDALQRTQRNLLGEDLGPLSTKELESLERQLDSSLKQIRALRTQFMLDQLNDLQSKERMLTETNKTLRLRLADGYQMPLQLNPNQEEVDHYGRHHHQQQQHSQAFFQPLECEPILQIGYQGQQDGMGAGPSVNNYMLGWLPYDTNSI
UniProt O64645: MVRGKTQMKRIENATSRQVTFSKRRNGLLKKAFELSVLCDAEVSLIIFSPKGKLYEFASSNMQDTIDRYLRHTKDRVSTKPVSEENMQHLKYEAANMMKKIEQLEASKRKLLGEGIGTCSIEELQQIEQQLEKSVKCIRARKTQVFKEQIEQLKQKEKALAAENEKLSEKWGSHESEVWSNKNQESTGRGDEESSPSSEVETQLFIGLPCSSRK
UniProt Q38836: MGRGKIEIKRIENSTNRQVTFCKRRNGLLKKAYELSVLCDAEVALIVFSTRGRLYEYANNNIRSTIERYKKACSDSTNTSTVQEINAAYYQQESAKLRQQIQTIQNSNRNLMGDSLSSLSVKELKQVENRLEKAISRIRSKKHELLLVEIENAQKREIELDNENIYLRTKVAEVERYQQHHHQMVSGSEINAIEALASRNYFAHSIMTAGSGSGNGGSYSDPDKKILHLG
UniProt P29381: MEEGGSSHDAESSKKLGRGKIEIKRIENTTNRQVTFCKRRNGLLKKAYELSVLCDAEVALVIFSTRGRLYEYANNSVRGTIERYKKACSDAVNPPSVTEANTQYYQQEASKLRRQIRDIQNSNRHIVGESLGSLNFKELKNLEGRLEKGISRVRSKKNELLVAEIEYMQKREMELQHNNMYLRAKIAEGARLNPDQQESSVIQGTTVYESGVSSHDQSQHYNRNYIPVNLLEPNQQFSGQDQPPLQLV

For experiment [4], the target named is AGL19 (Arabidopsis thaliana) (UniProt O82743).
The target of experiment [5] is AGL21 (Arabidopsis thaliana) (UniProt Q9SZJ6).
Experiment [6] deals with AGL6 (Arabidopsis thaliana) (UniProt P29386).
Experiment [7] addresses CAULIFLOWER (Arabidopsis thaliana) (UniProt Q39081).
Experiment [8] addresses FLOWERING LOCUS C (Arabidopsis thaliana) (UniProt Q9S7Q7).
Experiment [9] concerns the target SEP1 (Arabidopsis thaliana) (UniProt P29382).
The target of experiment [10] is SEP3 (Arabidopsis thaliana) (UniProt O22456).
Experiment [11] addresses SHORT … PHASE (SVP1) (Arabidopsis thaliana) (UniProt Q9FVC1).
The target of experiment [12] is SUPPRESSOR OF OVEREXPRESSION OF CO 1 (Arabidopsis thaliana) (UniProt O64645).
Experiment [13] addresses T2, XAL1 (Arabidopsis thaliana) (UniProt Q38841).
T2 sequence: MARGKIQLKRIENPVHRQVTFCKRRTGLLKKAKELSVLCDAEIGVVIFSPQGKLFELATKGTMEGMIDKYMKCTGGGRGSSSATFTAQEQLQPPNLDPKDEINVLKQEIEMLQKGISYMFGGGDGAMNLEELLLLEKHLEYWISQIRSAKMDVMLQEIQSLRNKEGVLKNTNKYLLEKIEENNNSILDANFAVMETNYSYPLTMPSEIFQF

For another experiment, the target named is … (Arabidopsis thaliana) (UniProt Q38836).
Experiment [14] addresses …OOF1 (Arabidopsis thaliana) (UniProt P29381).

Results are given in words; binding and its absence hold for the method and conditions named. Some binding calls cover weakened binding; strength is not graded here.

Regarding “SVP1 SS227-228MF (from UniProt Q9FVC1 1-240)”, the binding entry in experiment [1] is “binds”; in experiment [2], “no binding”; in experiment [3] it was “no binding”; in [4] it was “no binding”; in [5], “binds”; in [6], “no binding”. For the same substance, the binding result is on record as “binds” in experiment [7]; “binds” in experiment [8]; “binds” in experiment [9]; “binds” in [10]; “no binding” in experiment [11]; “binds” in experiment [12]. In addition, the binding entry in experiment [13] is reported as “no binding”; with … (Arabidopsis thaliana), “no binding”; in [14] it was “binds”.

For the origin of these results see article PMC2991254.
